Out of some 230,000 compounds screened, about 3,600 (1.6%) were called active. This list was built around the results that the source calls inconclusive (neither active nor inactive); the mix of calls is not that of the screen. Calls come from the whole dose curve; as a rule, active = well fitted inhibition curve with a large enough effect (not every such curve was filed as active); inconclusive = small, poorly fitted or top-dose-only effect, or another doubt; inactive = no such curve, though single readings can be large or run the other way. Potencies beside an inconclusive call are fits to weak or partial responses and may not hold up.
What follows are compounds tested against Lysine-specific demethylase 4E (Homo sapiens) (UniProt B2RXH2) (assay: qHTS Assay for Inhibitors of Human Jumonji Domain Containing 2E (JMJD2E)). Conditions: JMJD2E catalytic domain, FDH-coupled NADH fluorescence (FDH is formaldehyde dehydrogenase); series mostly up to 57.1 µM.
Chain of UniProt B2RXH2 (B2RXH2 whole entry, looked up, the tested form may be a part): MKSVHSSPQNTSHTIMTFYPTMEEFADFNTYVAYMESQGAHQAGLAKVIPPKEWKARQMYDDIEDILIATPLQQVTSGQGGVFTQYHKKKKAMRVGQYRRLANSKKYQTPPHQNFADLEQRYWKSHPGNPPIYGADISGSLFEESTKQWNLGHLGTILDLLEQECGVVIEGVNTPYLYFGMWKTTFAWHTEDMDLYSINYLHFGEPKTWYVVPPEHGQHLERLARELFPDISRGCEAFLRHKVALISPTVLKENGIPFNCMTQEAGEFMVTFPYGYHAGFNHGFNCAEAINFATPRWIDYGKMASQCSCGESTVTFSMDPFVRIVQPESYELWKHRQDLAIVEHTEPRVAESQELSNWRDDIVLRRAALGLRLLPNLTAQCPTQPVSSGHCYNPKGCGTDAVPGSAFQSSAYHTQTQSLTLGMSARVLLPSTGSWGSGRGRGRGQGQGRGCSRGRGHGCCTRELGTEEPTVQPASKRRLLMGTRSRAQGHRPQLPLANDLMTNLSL
`CCN1/C(=C2\C(=O)N(C)C(=S)N2C)C=Cc2ccccc21` was tested, and the Potency was inconclusive: 39.8 µM [inhibitor, single point].
For `NC1=C(Br)C(=O)c2ccccc2C1=O`, the Potency was “inactive”.
With `O=C(CCN1C(=O)C2C3C=CC(C3)C2C1=O)N1CCN(c2ccc([N+](=O)[O-])cc2)CC1` (stereo not given) the Potency was “inactive”.
In the case of `Cc1cc(NCCC(C)C)n2nc(C)c(-c3ccccc3)c2n1`, the Potency is reported as inconclusive: 35.5 µM [inhibitor, single point].
For `OC(CNCCc1ccc(Cl)cc1)COCc1ccco1` (stereo not given), the Potency was inconclusive: 20 µM [inhibitor, partial curve, poor fit].
`COc1ccc(C(=O)C[n+]2ccc(-c3nnc4n3CCC4)cc2)cc1` was tested, and the Potency was inconclusive: 28.2 µM [inhibitor, partial curve].
In the case of `CCc1cc(N2CCOCC2)cc2c1[nH]c1ccccc12`, the Potency is reported as inconclusive: 31.6 µM [inhibitor, partial curve].
For `Cc1ccc(-n2nc(-c3cccnc3)cc2C(=O)N2CCOCC2)c(C)c1`, the Potency was “inactive”.
With `N#Cc1cccc(-c2ccc3ncnc(NCc4cccnc4)c3c2)c1` the Potency was inconclusive: 28.2 µM [inhibitor, partial curve].
For `COCc1cc(=O)n2[nH]c(N)nc2n1`, the Potency was “inactive”.
In the case of `Cc1ccc(C(=O)Oc2cccc(NC(=O)c3cccs3)c2)cc1S(=O)(=O)N1CCOCC1`, the Potency is reported as inconclusive: 39.8 µM [inhibitor, single point].
With `CCOC(=O)CSc1ncc(OC)c(=O)[nH]1` the Potency was inconclusive: 39.8 µM [inhibitor, single point].
With `Cc1cc(=O)nc2c3ccccc3n(C(C)C(=O)NCCC(C)C)n12` (stereo not given) the Potency was inconclusive: 35.5 µM [inhibitor, single point].
In the case of `O=C(c1cccc([N+](=O)[O-])c1)n1nc(-c2ccccc2)nc1NCc1ccccc1`, the Potency is reported as inconclusive: 28.2 µM [inhibitor, single point].
In the case of `Cc1[nH]c2ccccc2c1/C=C/c1cc[n+](C)cc1`, the Potency is reported as “inactive”.
`C=CCOc1ccc2c(c1)c(S(=O)(=O)c1ccc(C)cc1)cn2COC` was tested, and the Potency was inconclusive: 35.5 µM [inhibitor, single point].
`O=C(NNC(=O)C1CC(c2cccnc2)=NO1)Nc1ccccc1F` (stereo not given) was tested, and the Potency was “inactive”.
`CC(C)CN(Cc1c(O)ccc2c3c(c(=O)oc12)CCC3)CC(C)C` was tested, and the Potency was inconclusive: 10 µM [inhibitor, partial curve].
With `Cc1ccc(C(=O)Nc2nc3ccc(S(C)(=O)=O)cc3s2)s1` the Potency was inconclusive: 28.2 µM [inhibitor, single point].
For `CCOC(=O)c1cc2sc(C)cc2n1CC(=O)Nc1ccc2c(c1)OCCO2`, the Potency was inconclusive: 39.8 µM [inhibitor, single point].
`Cc1ccc(Cl)cc1N1CCN(CC(=O)Nc2ccc3[nH]c(=O)[nH]c3c2)CC1` was tested, and the Potency was “inactive”.
For `Cc1cc2nc(-c3cccnc3SCC(=O)NC(C)C)[nH]c2cc1C`, the Potency was inconclusive: 20 µM [inhibitor, partial curve].
With `Cc1ccc2nc(Cl)c(C3CC(c4cccs4)=NN3S(C)(=O)=O)cc2c1` (stereo not given) the Potency was inconclusive: 3.98 µM [inhibitor, single point].
In the case of `COc1ccc(CCNC(=O)C2CCN(S(C)(=O)=O)CC2)cc1OC`, the Potency is reported as “inactive”.
With `O=C(N1CCCCCC1)N1CCN(S(=O)(=O)c2ccccc2)CC1` the Potency was “inactive”.
With `Cc1ccc(C)c(SCC(=O)Nc2cc(C)nn2-c2ccc(F)cc2)c1` the Potency was “inactive”.
For `CC(C)C(c1nnnn1Cc1ccccc1)N1CCc2ccccc2C1` (stereo not given), the Potency was inconclusive: 25.1 µM [inhibitor, partial curve].
`Cc1cc(C)n2c3c(c(C#N)c2n1)CCCC3` was tested, and the Potency was inconclusive: 35.5 µM [inhibitor, single point].
In the case of `Cc1ccc(C2C(C(=O)c3cc4ccccc4o3)=C(O)C(=O)N2CCN2CCOCC2)o1` (stereo not given), the Potency is reported as inconclusive: 25.1 µM [inhibitor, partial curve].
With `CCc1ccc(C(=O)CSc2ncn[nH]2)cc1` the Potency was inconclusive: 28.2 µM [inhibitor, single point].
For `CCOC(=O)C1CCCN(C(=O)c2cc(-c3ccc(C)cc3)nc3ccccc23)C1` (stereo not given), the Potency was inconclusive: 35.5 µM [inhibitor, partial curve].
For `O=C(COc1ccc2c(-c3ccccc3)cc(=O)oc2c1)NCc1cccs1`, the Potency was inconclusive: 35.5 µM [inhibitor, partial curve].
`Oc1cc2ccccc2nc1-c1ccccc1Cl` was tested, and the Potency was inconclusive: 31.6 µM [inhibitor, partial curve].
For `COCCNC(=O)c1c(N)n(CCCn2ccnc2)c2nc3ccccc3nc12`, the Potency was inconclusive: 28.2 µM [inhibitor, partial curve].
With `CC(=O)Nc1nc(-c2ccccc2)c(-c2ccccc2)o1` the Potency was inconclusive: 28.2 µM [inhibitor, partial curve].
For `CCOc1cc(/C=C2\N=C(SC)SC2=O)cc([N+](=O)[O-])c1OC(C)=O`, the Potency was “inactive”.
In the case of `Cc1ccc(-c2cc(C(F)(F)F)n3nc(C(=O)NCCCn4ccnc4)cc3n2)cc1C`, the Potency is reported as inconclusive: 39.8 µM [inhibitor, single point].
For `O=C1CC(/C=C/c2ccccn2)=Nc2ccccc2N1`, the Potency was inconclusive: 39.8 µM [inhibitor, single point].
With `Cc1cccc(C(=O)Nc2nnc(-c3ccncc3)o2)c1` the Potency was inconclusive: 39.8 µM [inhibitor, single point].
In the case of `COc1cc(CNCCSc2nnnn2C)cc(Br)c1OCc1ccccc1`, the Potency is reported as inconclusive: 35.5 µM [inhibitor, single point].
For `CS(=O)(=O)N1CC(C(=O)NC2CCCC2)Oc2ccc(Cl)cc21` (stereo not given), the Potency was “inactive”.
In the case of `CCCCN(C)C1=Nc2cccc3cccc1c23`, the Potency is reported as inconclusive: 39.8 µM [inhibitor, single point].
For `CC(=O)c1c(C)oc2ccc(N(C(=O)c3ccncc3)S(=O)(=O)c3ccccc3)cc12`, the Potency was inconclusive: 15.8 µM [inhibitor, partial curve].
For `O=C(Nc1ccccc1C(=O)Nc1ccccc1C(=O)NCc1ccco1)c1ccco1`, the Potency was inconclusive: 31.6 µM [inhibitor, single point].
With `Cc1ccc(SCC(=O)OCn2nnc3ccccc3c2=O)cc1C` the Potency was “inactive”.
In the case of `C=CCNC(=O)/C(C#N)=C\c1cc(Cl)c(O)c(OCC)c1`, the Potency is reported as inconclusive: 39.8 µM [inhibitor, single point].
With `C/C(=N\Nc1ccc(F)cc1F)c1ccc(N2CCOCC2)cc1` the Potency was inconclusive: 28.2 µM [inhibitor, single point].
`CCN(CC)S(=O)(=O)c1ccc2[nH]cc(C(=O)NCCN3CCCCC3C)c(=O)c2c1` (stereo not given) was tested, and the Potency was inconclusive: 35.5 µM [inhibitor, single point].
In the case of `CCOc1c(Cl)cc(C(=O)Nc2ccccc2C(=O)O)cc1Cl`, the Potency is reported as “inactive”.
With `Cc1ccc2cc3c(NC(=O)CC(C)C)nn(C)c3nc2c1` the Potency was inconclusive: 39.8 µM [inhibitor, single point].
`CCOC(=O)N1CCN(C(=O)CSc2ccc(-c3cccnc3)nn2)CC1` was tested, and the Potency was “inactive”.
With `CN(C)/C=N/c1nc2nccc(-c3cccnc3)n2n1` the Potency was inconclusive: 31.6 µM [inhibitor, partial curve].
`Cn1c2ccccc2c2cnn(CC(=O)Nc3ccc(Cl)cc3)c(=O)c21` was tested, and the Potency was inconclusive: 28.2 µM [inhibitor, partial curve].
For `CNC(=O)/C(C#N)=C/c1ccc(-c2ccc(OC)cc2[N+](=O)[O-])o1`, the Potency was “inactive”.
In the case of `COC(=O)Cc1c(C)nc2nc(-c3ccco3)[nH]n2c1=O`, the Potency is reported as “inactive”.
With `Cc1ccc(OCCn2cc(/C=C(\C#N)C(=O)NCC3CCCO3)c3ccccc32)cc1` (stereo not given) the Potency was inconclusive: 39.8 µM [inhibitor, single point].
With `CC(=O)C1=C(C)NC(SCC(=O)c2cc(Cl)ccc2Cl)=C(C#N)C1c1ccco1` (stereo not given) the Potency was inconclusive: 35.5 µM [inhibitor, single point].
For `Cc1nc2c(C#N)c(C)[nH]n2c(=O)c1Cc1ccccc1`, the Potency was inconclusive: 31.6 µM [inhibitor, partial curve].
For `CCN1CCN(c2ncnc3c2cnn3-c2ccccc2)CC1`, the Potency was inconclusive: 28.2 µM [inhibitor, single point].
With `CC1CN(S(=O)(=O)c2cccc(C(=O)OC/C(O)=C(\C#N)c3nc4ccccc4[nH]3)c2)CC(C)O1` (stereo not given) the Potency was inconclusive: 39.8 µM [inhibitor, single point].
With `CCn1c(=O)c2cc(C(=O)N3CCN(C(=O)c4ccco4)CC3)sc2c2ccccc21` the Potency was inconclusive: 31.6 µM [inhibitor, partial curve].
With `O=C(Nc1ccccc1)N1CCN(C2c3ccccc3-c3ccccc32)CC1` the Potency was “inactive”.
In the case of `COC(=O)c1ccc(-c2nc3ccccc3o2)cc1`, the Potency is reported as inconclusive: 2.82 µM [inhibitor, partial curve].
With `Nc1nnc(-c2cn(-c3ccccc3)nc2-c2ccccc2)o1` the Potency was inconclusive: 31.6 µM [inhibitor, single point].
`COC(=O)c1[nH]c2cccc(OC)c2c1NC(=O)C(C)N1CCC(C)CC1` (stereo not given) was tested, and the Potency was inconclusive: 28.2 µM [inhibitor, partial curve].
`CC(=O)Oc1c(C(=O)c2nnc(C)o2)c(=O)n(Cc2ccccc2)c2ccccc12` was tested, and the Potency was inconclusive: 25.1 µM [inhibitor, single point].
`Nc1ccc2c(C(F)(F)F)cc(C(F)(F)F)nc2n1` was tested, and the Potency was inconclusive: 31.6 µM [inhibitor, partial curve].
With `Cc1nn(C)c(C)c1CNC(=O)/C=C/c1ccccc1F` the Potency was “inactive”.
In the case of `CCOC(=O)c1sc(N2N=C(C)/C(=C\c3ccc(OCC(=O)OC)cc3)C2=O)nc1C`, the Potency is reported as active: 22.4 µM.
`CCOC(=O)C1=C(c2ccccc2)NC(SCC(=O)Nc2ccc(C)cc2)=C(C#N)C1c1ccco1` (stereo not given) was tested, and the Potency was inconclusive: 7.08 µM [inhibitor, partial curve].

From PubChem BioAssay AID2147 (National Center for Advancing Translational Sciences (NCATS), 2009)
Note: nearly all actives have a fitted effect of over 50% in size.
Potency is the fitted concentration of half-maximal effect; tags give direction and shape of the fitted curve.
